The results in this text go back to paper PMC4623595 (Molecular cell, 2015).

Usually stoichiometry N stands for the number of molecules, sites or subunits per partner or assembly.

The series concerns the molecule itself. Description: SEC-MALS.

B1: Hsp104 lacking the NTD (Hsp104^ΔN) (domain or fragment)
chain: not shown
With B1, the “stoichiometry N” value came out at 6.
